Results as given in the supplement of paper PMC11417369.
± gives the standard deviation of the averaged measurements. This is one part of the list.

test system: PfAP2-I AP2 domain 3 (GST-tagged); assay: gcPBM binding intensity (ln(normalized median fluorescence intensity)); higher = stronger DNA binding
Procedure, shortened: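 Binding intensity is the highest Masliner-normalised natural-log median intensity over replicate spots in either probe orientation. To obtain it, GST-tagged P. falciparum DNA-binding domains made in E. coli were incubated for 1 h on an Agilent 4 × 180k array of primer-extended double-stranded 36-bp intergenic genomic probes plus negative controls. Detection used Alexa488 anti-GST antibody with scanning at 488 nm.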

Sequence | gcPBM binding intensity (ln)
TTTTTTTTTTTGTTCACACATATACTTTTATTTTGG [CACACA_site4250] | 8.34 ± 0.8
AATGCTATCATTAATGCACACATTTAAACTTAATAT [CACACA_site5878] | 11 ± 0.61
TATAACGCTTGCAGCTGTACAAAAATAATCAAACTG [XGTACX_site2464] | 7.71 ± 0.39
TTCTTGGAATACAAGTGTACTTTATTATTATTATTA [XGTACX_site5997] | 7.86 ± 0.4
ATAGAAAGTGACAATTGTACATACATATTATATATA [XGTACX_site4390] | 7.96 ± 0.38
TTTTTTTTTGCCTACTGTACTATTTTTGAGCTCACC [XGTACX_site7967] | 8.34 ± 0.24
AAAAAAAAAAAAAAAAAAAAATTTCAATTATATTGA [GTGCAC_negctrl_site642] | 9.28 ± 0.071
AAAATTATAATATATACACACATATATATATTAAAT [CACACA_site473] | 7.54 ± 0.54
AGATAAAAAAAGTACACACACACATATATATATATA [CACACA_site3072] | 9.34 ± 0.38
AAGCTTCCTTAATATACACACATATCTGAGTATATT [CACACA_site5939] | 7.67 ± 0.54
CAAAATATAGATGACACACACAAAAAAAGTATATTA [CACACA_site6848] | 7.53 ± 0.7
CATTTACCCTTATTAACACACAAAATATAATACGCT [CACACA_site2565] | 8.03 ± 0.43
ATTTACATTCACTTATGTACTTATATAATTTTATTT [XGTACX_site8150] | 7.88 ± 0.46
TACATATGAAAATACACACATACATACATATATATA [CACACA_site1673] | 8.1 ± 0.56
TAACTCCACAAATAATGTACATATATCACTATATTT [XGTACX_site4911] | 7.76 ± 0.59
AATGTATAATTATAATGTACAAATAATATATAATAT [XGTACX_site5407] | 7.88 ± 0.52
TATATTAAACATATATGTACATATTTTTTCTGAACA [XGTACX_site5390] | 7.7 ± 0.26
ACCAAATCATATATAGCACACAAATTCTTTATTATT [CACACA_site8911] | 8.66 ± 0.092
AATATTTTCTGTAATACTTCTTTTCAATTTATTTCG [CACACA_negctrl_site1390] | 7.67 ± 0.71

Sequence | gcPBM binding intensity (ln)
AATATCAATGATGTTACATGCAAGAGAATCCACAAA [TGCATGCA_site678] | 8.3 ± 0.79
TATTGTTTTTTTGATTTTTTTTTTTTTTTTAATGAA [CACACA_negctrl_site824] | 7.43 ± 0.6
ACGTAAAATTATTATTGTACATGTAAATAATTTGGA [XGTACX_site8154] | 7.74 ± 0.34
AAAATCAAAAAAACAAGTACAAATGTGGACTTTTTT [XGTACX_site5363] | 7.64 ± 0.58
TGTTCTATGGTTTGTAGTACTTTAATAAATATAAAT [XGTACX_site7823] | 7.9 ± 0.31
TCAAAAAAAAAAAAAAAAAAAAAAAAAAAAAAAAAA [CACACA_negctrl_site1753] | 8.54 ± 1
AATAAGCTCACGTGTCGTACATTTTTTAAAACAACC [XGTACX_site4707] | 8.05 ± 0.45
TATATATATATATATGTGCACTGAAAGAATTATACA [GTGCAC_site9586] | 10.7 ± 0.13
GCTCAATTTTTGGGTACACACAAATGTATAAGAATA [CACACA_site7178] | 8.15 ± 0.17
TTTTTCTAATTATGCACACATATCAAAATATTCAAT [CACACA_site2749] | 10.4 ± 0.58
TATTTATTTTATATATGTACATAATATATTCTTATA [XGTACX_site1619] | 7.81 ± 0.28
ATATATATAGAAATATGTACGAAAAAAATATCACAT [XGTACX_site746] | 8.44 ± 0.81
ATTTATGGAAAAAGAACACACAATCAAACAAAAATA [CACACA_site3707] | 8.01 ± 0.57
TTTTTTTTTTTTTGGTGTACCATAGGTAAAATGATT [XGTACX_site8020] | 8.27 ± 0.59
ATATAAATGAATATATGTACATATATATATATATAT [XGTACX_site6361] | 9.12 ± 0.52
TGACCTGTTCAGGTAACACACATATAAACCCATACA [CACACA_site31] | 7.88 ± 0.43
ATGCTATAGGATCTTACACACATTTTTGTAAAAAAA [CACACA_site1868] | 7.79 ± 0.52
ACACAATAAACATTATGTACATATAATGTTCTGTGT [XGTACX_site3381] | 7.54 ± 0.49
AATGATAATCTATTATGTACACATATATTCTTATGT [XGTACX_site4148] | 7.54 ± 0.3

Sequence | gcPBM binding intensity (ln)
CTATATATAAAATATTGTACTTATTTTTATTACATC [XGTACX_site3963] | 7.72 ± 0.46
TATACATATGTATGCACACATACATACCCATATAAT [CACACA_site5842] | 8.79 ± 0.014
TATTTAAAATATTAAATTTGTAAAGTTCGAGGGAAG [GTGCAC_negctrl_site337] | 7.83 ± 0.33
TTTTCTCAATTTTGGTGTACTTTTTTCTTAACACAT [XGTACX_site8918] | 8.15 ± 0.48
GAAAAAAAAATATCTTGTACTTACATAACTATTGGT [XGTACX_site5326] | 7.61 ± 0.5
AAAGGTTTATCTGATACACACATAAGTGATCAGGTT [CACACA_site6233] | 7.44 ± 0.67
TAAATTAAAAAACATAAACTATTGGAAACGCATTGA [CACACA_negctrl_site935] | 7.57 ± 0.64
GGAATAGTGATATATACACACAAATACATATTTATA [CACACA_site6183] | 7.87 ± 0.68
AATTAATAAGAAAGGTGTACAGAAAAAAAAAAATAT [XGTACX_site2106] | 8.46 ± 0.43
AAAAGAAATGACAAATTGGATAGATAATAGGGGGTA [GTGCAC_negctrl_site262] | 8.12 ± 0.57
AATTTTGATATATATTGTACGCATTTTTAAATGCCA [XGTACX_site7694] | 8.17 ± 0.44
TTTAATAAAATTCTAGTGCAAAAAGGAAAAAACAAA [GTGCAC_site9642] | 10.4 ± 0.47
AAAAAAAAAAAAAATACACACATATATAAATAAATA [CACACA_site6459] | 8.09 ± 0.46
TTCTTAATTTAAAATTGTACTTAAGTAATACTTATG [XGTACX_site3928] | 7.68 ± 0.52
GAAGTTTTTTAAAGATGTACTTTTTAAAAATAATGT [XGTACX_site1975] | 7.93 ± 0.37
TTATTTACTTATTGCACACATATAAAATATATTTAT [CACACA_site3101] | 10.6 ± 0.76
ATAATAAAACTCAAAGTGCATTAGAATAATTGTAAA | 10.7 ± 0.49
ATTCATAAATATATTTGTACATATTATATATAAATA [XGTACX_site1907] | 7.85 ± 0.31
